Source: patent US20220332813A1 (UNIVERSITY OF MARYLAND BALTIMORE, published 2022)

Molecular target: T1, full-length human LRP1 (purified) (human, UniProt Q07954)
T1 construct: also called LDL receptor-related protein 1; purified LRP1
Assay: SPR, full-length LRP1 immobilised

Binder	Kd [nM]
tau mutant S262A (ligand) not shown	230
tau mutant S262E (ligand) not shown	450
